Reference: PubChem BioAssay (NCI)
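In this assay, cells in 96-well plates receive the compound at five concentrations for 48 hours. Endpoints are linearly interpolated between the surrounding concentrations. GI50 marks 50% less growth. At the TGI there is no net growth.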

Test system: NCI-H322M lung
Experiment: NCI tumour cell line growth inhibition, 48 h

Question: For CN(Cc1ccccc1)S(=O)(=O)/N=C1\NC(=O)NC1=C(Cl)Cl, which GI50 is on record?
Answer: Its GI50 is 2.09 µM.

Question: And the TGI?
Answer: Its TGI is 5.3 µM.
